Experimental data from the supplement of paper PMC3334620.
In all, about 33,000 sequences were measured (“E-score (-0.5 to 0.5)”: median about -0.032, highest 2% from about 0.36 on). This is one part of the list.

biological target: T1, Sko1 (UniProt Q02100); assay: PBM E-score (8-mer binding enrichment) (E-score (-0.5 to 0.5)); higher = stronger / more preferred TF binding; most listed sequences are background and not binding sites; details: protein concentration: 200 nM; construct: GST-full length
T1 sequence: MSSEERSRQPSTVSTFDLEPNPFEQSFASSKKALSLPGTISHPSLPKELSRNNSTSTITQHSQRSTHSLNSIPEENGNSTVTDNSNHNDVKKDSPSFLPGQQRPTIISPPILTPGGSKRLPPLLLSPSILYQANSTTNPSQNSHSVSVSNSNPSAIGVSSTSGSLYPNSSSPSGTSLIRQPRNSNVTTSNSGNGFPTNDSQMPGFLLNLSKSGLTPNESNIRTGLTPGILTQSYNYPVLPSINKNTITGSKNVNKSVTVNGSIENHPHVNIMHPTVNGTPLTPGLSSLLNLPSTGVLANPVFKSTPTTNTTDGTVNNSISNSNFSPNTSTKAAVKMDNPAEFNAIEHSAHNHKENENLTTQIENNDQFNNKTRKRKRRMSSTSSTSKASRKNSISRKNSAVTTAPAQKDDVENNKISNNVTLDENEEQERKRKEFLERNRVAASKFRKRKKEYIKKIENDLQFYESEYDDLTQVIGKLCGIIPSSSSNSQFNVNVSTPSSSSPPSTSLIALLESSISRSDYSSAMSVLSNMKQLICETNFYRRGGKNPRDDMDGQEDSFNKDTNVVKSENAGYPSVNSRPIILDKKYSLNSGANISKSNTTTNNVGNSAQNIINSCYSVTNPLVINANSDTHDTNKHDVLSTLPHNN
How it was run: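 Yeast transcription factors, full-length or as DNA-binding domains, were expressed with a GST tag using PURExpress in vitro transcription/translation. At about 100-200 nM they were applied to universal all-10-mer Agilent arrays, double-stranded by primer extension on fresh or once-stripped slides. Fluorescent anti-GST detected bound protein, and masliner normalised the scans. E-scores for ungapped eight-base words, pooled with reverse complements, came from the Universal PBM Analysis Suite.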

Sequence	PBM E-score
CATTGTTC	-0.0199
ACAGTGCA	-0.0316
CACGGATA	0.0485
ACTTCATA	0.136
CTGCCAGC	-0.133
CCAGAGTA	-0.152
ACTGCAAG	-0.149
CACTTATA	0.0961
TCTTAGAA	0.108
GGAGAGTA	-0.2
ACTTTTGA	0.124
ACCATCGC	0.112
ACAATACG	0.386
ACACACTG	-0.0628
CGACTTCA	-0.0915
AGGATTGG	-0.0655
CCCAACCG	-0.0724
CACAAGTA	-0.026
AGAAGCAA	0.0603
AACCGCTC	-0.0488
AGAGATCG	-0.00906
CATGTAAG	0.117
CTAAGGCC	-0.204
AATCCACT	0.028
GCCTCGCA	0.026

Sequence	PBM E-score
CCGAGGAA	-0.14
ACGTGTCT	0.381
CGTCATGA	0.471
ATACCGAG	-0.178
CGTGAACA	0.234
AATTAGGC	0.175
ATATGTGC	-0.0249
CTCATTTC	-0.07
ACTGGTAC	-0.0541
ATTTGCCC	-0.132
GGGTATTA	-0.134
ACGAGGTC	0.0396
ACCCGAAA	-0.0398
GCGGGTAA	-0.267
AGCATTAT	0.0995
CATAGAGG	-0.213
GGCCGTAC	0.0353
CAGTCATC	-0.204
CCACCTGC	-0.21
CGTACCGA	0.186
CCTTTCTC	-0.138
CTGCATCC	-0.177
ACAAACAA	0.148
ATATATTC	0.254
CCTAATTA	0.146

Sequence	PBM E-score
CCCCCATC	-0.202
AATCCGGC	-0.201
GTCCTTAA	0.039
TAGGTCAA	0.161
CGTAATAG	0.435
TCCGTCCA	0.0515
ATAGTCTA	-0.0569
CAAGTTTA	0.153
GCGGTTAC	0.068
GATCGAAC	0.00066
CCCAGTGC	-0.174
GTTTTGCA	0.0831
AGTTTCTG	-0.0675
GAGCTTCA	0.0807
AGCTCTCA	-0.143
CGAACGAA	0.0921
CTAAGCAA	-0.0834
GTTTAGTA	0.204
AAGCTCTG	-0.177
ACGAATTG	0.263
TAACAGCA	0.0687
GCTGAGGA	-0.205
ACGGTTAG	-0.216
AATCCGAG	-0.0399
AGGAATGC	-0.204

Sequence	PBM E-score
AACAGCAC	0.138
CTTTGACC	0.0262
GGCCTTGA	-0.223
TCTTTCAA	-0.0686
GCATCGGA	-0.074
CGGATTCA	-0.246
ACGTACCA	0.444
AATCTCTC	-0.0069
ACCACTCG	-0.0566
CCCTCCTC	-0.212
GTAGTGGA	0.11
AGTCTTTG	-0.131
AAATAAGT	0.133
ATAGCAGC	-0.16
ACCCTAGC	-0.096
ATACATAC	0.267
ATGCACGA	0.115
CACAAACC	-0.0602
AACTACAT	0.0919
ACTTCTAT	-0.0271
CCTCCAGG	-0.416
CTCAGGAC	-0.0872
CATCTCTA	0.144
AAGAACCG	-0.0444
ACATTCCT	-0.115

Sequence	PBM E-score
CCCCCAAG	-0.251
AGCCGAAC	-0.00408
CCAGCACG	-0.0704
GACCGCAA	-0.201
GCAACCTA	-0.062
GCGGTTCA	-0.136
CGCCGATC	-0.15
TGGGACAA	-0.198
GCCAAAAA	0.0186
ATAAACAC	0.261
ACGAACAG	0.0082
GCACCGCC	-0.218
ACGATCTG	-0.0936
AGCAGGGC	-0.225
CGCCCTGA	-0.0378
CTGGTATC	-0.153
GCATGAAA	0.131
GATCGGTA	-0.0878
AAGACATT	-0.144
ACATGGAG	-0.181
GAGCTCCA	-0.129
ACAAGTGT	-0.083
ATAATTAA	0.285
AGCATCAC	0.0723
GAGTGGCA	-0.154

Sequence	PBM E-score
AGTCTCAA	-0.215
ACTACCTG	-0.0996
GTACACAC	0.162
ACAAGGCA	-0.175
CAGCCACG	-0.0713
AAACTCTT	-0.0949
GACAAGGA	-0.0908
CTAGTGCC	-0.209
GTGGCGGA	-0.139
CCTTGGAA	-0.122
AGGATACA	-0.0989
AATCCGTC	0.116
CGAAGAAG	0.0371
ACCCAAGC	-0.247
GAACGGGA	-0.211
AGGGATTA	0.00053
AGAAATCC	-0.0324
CCTGAGCA	-0.096
ACTACCAC	0.0163
ACCGTCGA	-0.124
ATTGAGAA	0.166
GGCGTAAA	0.158
ACCTGTCG	-0.00568
CGTCGAAG	0.0974
AGTGGTAA	0.0561

Sequence	PBM E-score
CGTCCATC	0.113
CGAAGATC	-0.0361
TGACTAAA	0.0792
CTTGATGA	0.138
CTAAATAC	0.14
TGGGCCCA	-0.0381
TAACCAAA	0.0594
AAAAGGCT	-0.224
ACTAGGTA	0.0844
CCGACATA	-0.00198
ACATTGCT	0.0634
CGGTCCTA	-0.256
TGGGGAAA	-0.0215
CTTGTTGA	0.1
AATTCTAA	0.163
AAACATCG	-0.0467
CAGCATAA	-0.0433
GGATTCAA	-0.133
CATAAAAA	0.229
CCTAAATC	0.0332
GACGAGGC	-0.0768
TAGCCACA	0.0515
TCTTCCAA	-0.0465
AACACCTT	0.0845
AGTAGACT	-0.00102

Sequence	PBM E-score
GACGTTCC	0.285
GAATACTA	0.198
ATAGGTTA	0.104
AATCCGTG	-0.203
CAGGAGAA	-0.212
CGTGCGGA	0.0597
CTAGGTTC	-0.143
GGTACACA	-0.251
CACAGATG	0.0965
ACACCGCG	-0.0539
CCTGTGAG	-0.156
CCTTATCA	0.104
GAACCGGC	-0.264
ACCCAGAC	-0.0956
ACATTCTC	-0.0004
GCCCATCC	-0.26
AATCGGCT	-0.0254
CAAAGTTC	-0.178
CTTATTAA	0.114
CAGGGCAG	-0.211
AGTATTCG	0.0215
CATTGTGC	0.152
CGGCGGCC	-0.193
TACTAACA	0.0792
CAGGAATC	-0.156

Sequence	PBM E-score
TATAATGA	0.233
CGTATCCC	0.147
AGAACCAG	-0.306
ATTAAGTG	0.0343
GGTTCAAA	0.045
CGCACCAG	0.0427
GCGCCACC	-0.291
GCGCGGGA	-0.0474
ATTTCATC	0.235
GCGTTACA	-0.0233
GCAGCAGA	-0.135
ATCTGTGG	-0.229
AGTACTTC	-0.0236
GCCCTGTA	-0.128
ATAATCCG	-0.0668
GTTTTCTA	0.201
ATTCCGGA	-0.0675
GCAAAAAA	0.179
GAAAAAGA	-0.0197
CCTTGGCC	-0.341
CAACGCTC	0.0406
CAGAGGAG	-0.114
AGTCGTAG	0.145
GCGTTTCC	0.17
GCATATTA	0.247

Sequence	PBM E-score
AGCGTGAT	0.147
GTACGTCA	0.491
CTACCTTA	-0.068
TACAGGAA	0.0226
GAGTTCTA	-0.167
ATGATTCG	0.0899
ATTGGCCG	-0.155
CCTTTCAC	0.104
CAGACGCC	-0.188
ATTTGCAG	0.0228
GCGTTCCA	-0.0133
AGGCGAAG	-0.28
CCGCCCAA	-0.181
GGCACAAC	-0.171
TGTTCCAA	0.0622
CAAAGGTA	-0.023
CCTCACAC	0.0338
ACTACTGC	-0.0692
GTTCCTAA	-0.0469
GCATGAGA	-0.0685
CCAACTCA	-0.0644
ACATTGAC	0.175
CGAGCTCC	-0.0181
AGGGGTGA	-0.249
CAAACGGG	-0.148

Sequence	PBM E-score
CTCGCTGA	-0.0791
GAACCGTA	-0.273
CCGCAGCG	-0.266
GCGTAAAC	0.281
ACTATCGA	-0.0539
ACTTTGGC	-0.204
ATAAAACG	0.23
AGGTTCGG	-0.268
GATATGGA	0.17
ATACATTA	0.217
AGGCGACA	-0.35
ATCCGTGG	-0.269
AATCCGAA	0.095
GCATTTCA	-0.0873
CAGGGAAA	-0.154
AAGCTGGC	-0.0611
AGACCGGC	-0.191
AATGTCCC	-0.261
GTACCCAA	-0.0825
CACATCTA	0.204
CAGAACCC	-0.215
CTGCCCTC	-0.262
GACTAGTC	-0.117
AGTATACC	-0.0102
GCGACCAC	-0.00397

Sequence	PBM E-score
AGAACCGA	-0.0964
CAGGTGCG	-0.0175
AGTCGTGC	-0.17
AGGTCCCC	-0.272
ATGTTAGC	0.173
AGTTGCAC	-0.0625
ACTCAATC	0.0835
TAGTTAGA	0.0533
ACGTTCGC	0.221
AGAACGGC	-0.152
CCATGAAC	-0.203
TATGGACA	0.0569
AATCAACG	0.115
ACTGGCTC	-0.212
CAAAAATA	0.184
GGTTGTAC	-0.158
ATGAACGC	0.145
GTCGAAAC	-0.00733
GCCACGCC	-0.109
ATAGCGTC	0.215
CTACAGGC	-0.239
CACTTCGA	0.0708
ACATGTTG	0.122
CCAAATCC	-0.208
GCGAGGGA	-0.289

Sequence	PBM E-score
ACATTTCC	-0.00076
GATTCAGC	-0.0762
TCCTATAA	0.0318
GAAGACAA	0.082
TGAAGAAA	0.0769
CAATAATG	0.164
GCCTAGAA	-0.121
CTATCCGA	-0.0706
CCACATCC	-0.129
CAGACTGG	-0.201
CTAGTCAA	-0.0871
GGGTAGAC	-0.243
CGGCCAAG	-0.324
ACCATGAT	0.172
TTGGCAAA	0.121
TAATGGCA	0.099
CTCTTGCA	-0.169
ATCTCACC	-0.0481
ACATCCTC	-0.17
ACCTTGAC	-0.058
CGCTCGCC	-0.179
CTCCGCGA	-0.199
AGTCTCCA	-0.0977
GGTGTGTA	-0.107
GCTCAAGA	-0.215

Sequence	PBM E-score
CTGTATTC	-0.0125
CCATTGCC	-0.183
CCGATGAG	-0.155
CCGAATCC	-0.231
ACGCTAAT	0.0454
CAGGACGG	-0.216
ATCTCAAT	0.206
ACAGTGCT	-0.0575
AGTCACTG	0.00358
GGCTGGAC	-0.241
CTCCTTAA	-0.265
ATTTAAAC	0.221
ACGAACTC	0.217
ATATGTCG	0.184
AATATACA	0.228
CGTGTTCA	0.203
GGTGGTGA	0.0184
TAACCTTA	-0.156
AAGGCTCT	-0.308
